Laboratory results: US20240228579A1 (Innovent, published 2024)

Target: T1, Claudin18.2 (cp0007, Genscript) (UniProt P56856-2 1-261, limits assumed)
T1 construct: Bought antigen used in BLI; also called Claudin18.2 antigen; the antigen
T1 sequence (looked up): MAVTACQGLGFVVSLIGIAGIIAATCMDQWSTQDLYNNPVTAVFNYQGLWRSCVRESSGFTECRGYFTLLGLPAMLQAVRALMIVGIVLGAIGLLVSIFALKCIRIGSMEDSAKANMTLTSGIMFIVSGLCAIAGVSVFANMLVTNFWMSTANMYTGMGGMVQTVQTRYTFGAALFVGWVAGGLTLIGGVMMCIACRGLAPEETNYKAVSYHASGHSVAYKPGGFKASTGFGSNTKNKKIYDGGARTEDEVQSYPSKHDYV
Experiment: BLI (Octet), antibody on AHC sensor, Claudin18.2 100 nM

| Binder | Kd | Response | kon | koff |
| --- | --- | --- | --- | --- |
| Fcmut-01 (antibody, human IgG1, kappa, IgG1-WT monoclonal antibody against human claudin18.2; parent and control of Fcmut-02 to Fcmut-24; Biotin-labelled in the C1q assay) heavy: QVQLVQSGAEVKKPGSSVKVSCKASGYSFSSYNIHWVRQAPGQGLEWMGYIAPFQGDSRYNQKFKGRVTITADKSTSTAYMELSSLRSEDTAVYYCARLNRGNSLDYWGQGTLVTVSS[human IgG1 constant region not printed] light: DIVMTQSPDSLAVSLGERATINCKSSQSLFNSGNQRNYLTWYQQKPGQPPKLLIYWASTRESGVPDRFSGSGSGTDFTLTISSLQAEDVAVYYCQNNYIYPLTFGGGTKVEIKRTVAAPSVFIFPPSDEQLKSGTASVVCLLNNFYPREAKVQWKVDNALQSGNSQESVTEQDSKDSTYSLSSTLTLSKADYEKHKVYACEVTHQGLSSPVTKSFNRGEC | ≤ 3.32 nM | 0.149 nm | 60200 M⁻¹ s⁻¹ | – |
| Fcmut-05 (antibody, human IgG1, kappa, L234A L235A, IgG1-mut of Fcmut-01: L234A + L235A (EU index); also called LALA mutation) heavy: QVQLVQSGAEVKKPGSSVKVSCKASGYSFSSYNIHWVRQAPGQGLEWMGYIAPFQGDSRYNQKFKGRVTITADKSTSTAYMELSSLRSEDTAVYYCARLNRGNSLDYWGQGTLVTVSSASTKGPSVFPLAPSSKSTSGGTAALGCLVKDYFPEPVTVSWNSGALTSGVHTFPAVLQSSGLYSLSSVVTVPSSSLGTQTYICNVNHKPSNTKVDKKV[human IgG1 Fc with changes not printed] light: DIVMTQSPDSLAVSLGERATINCKSSQSLFNSGNQRNYLTWYQQKPGQPPKLLIYWASTRESGVPDRFSGSGSGTDFTLTISSLQAEDVAVYYCQNNYIYPLTFGGGTKVEIKRTVAAPSVFIFPPSDEQLKSGTASVVCLLNNFYPREAKVQWKVDNALQSGNSQESVTEQDSKDSTYSLSSTLTLSKADYEKHKVYACEVTHQGLSSPVTKSFNRGEC | 3.17 nM | 0.153 nm | 63200 M⁻¹ s⁻¹ | 0.0002 s⁻¹ |
